# Laboratory results reported in the supplement of paper PMC8183993.
# “And” between values parts separate entries of the source, which are not always exact repeats. Equal values may be shown once. Where a name gives a salt, the structure may show the parent alone. ± gives the standard deviation of the averaged measurements. Over roughly 3,200 compounds, “nuclei count (viability) relative to DMSO” has its median near 99; the lowest 2% begin near 16. The list shows a part of the results.
# Tested on: U2OS
# Experiment: nuclei count (viability) relative to DMSO (% of DMSO); higher = more viable cells
# Details: 10 µM; 24 h
# Protocol: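 Primary image-based screen in U2OS cells: compounds at 10 uM for 24 h, then a 1 h o-propargyl-puromycin (OPP) pulse, click labelling, and high-throughput microscopy. Mean cytoplasmic OPP intensity and nuclei count were normalised to DMSO wells within each plate (DMSO = 100) and averaged over triplicate plates.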
row,Structure (SMILES),nuclei count
1,COc1cc(C=O)ccc1O [Vanillin],102
2,COc1ccc2cccc(CCNC(C)=O)c2c1 [Agomelatine],97.2
3,CN(C)CCCCSC(=N)N,103
4,CSc1cccc(Nc2ncc3cc(-c4c(Cl)cccc4Cl)c(=O)n(C)c3n2)c1,72.2
5,OCc1ccc(-c2ccc(-c3ccc(CO)s3)o2)s1,19.9
6,O=c1c(-c2ccc(O)cc2)coc2cc(O)cc(O)c12 [Genistein],103 ± 6.6
7,CCOC(=O)Nc1ccc2c(c1)N(C(=O)CCN1CCOCC1)c1ccccc1S2 [Moricizine hydrochloride],108
8,C[C@H](NC(=O)Cc1cc(F)cc(F)c1)C(=O)N[C@@H]1C(=O)N(C)c2ccccc2-c2ccccc21,101
9,Clc1cc2c(NC3CCCC3)nnc(-c3ccncc3)c2cc1Cl,94.1
10,O=C(O)c1ccc(Nc2ncc3c(n2)-c2ccc(Cl)cc2C(c2c(F)cccc2F)=NC3)cc1,51.5 ± 2.5
11,COc1cc2c(cc1OC)-c1cc3ccc(OC)c(OC)c3c[n+]1CC2 [Palmatine chloride],110
12,COC(=O)[C@H]1[C@H]2C[C@@H]3c4[nH]c5cc(OC)ccc5c4CCN3C[C@H]2C[C@@H](OC(=O)c2cc(OC)c(OC)c(OC)c2)[C@@H]1OC [Reserpine],103 ± 4.7
13,CNC(=C[N+](=O)[O-])NCCSCc1ccc(CN(C)C)o1 [Ranitidine hydrochloride],97.5 ± 7.8
14,C=CCc1ccc(O)c(-c2ccc(O)c(CC=C)c2)c1 [Honokiol],102.37 ± 0.042
15,CC(C)C[C@H](NC(=O)[C@@H](O)[C@H](N)Cc1ccccc1)C(=O)O [Bestatin],94.4
16,CN(C)CCCSc1ccccc1NC(=O)/C=C/c1ccccc1 [Cinanserin hydrochloride],110
17,N#C[C@@H]1CCCN1C(=O)CNC12CC3CC(CC(O)(C3)C1)C2 [Vildagliptin (LAF-237)],98.5
18,CC(C)C[C@H](NC(=O)CNC(=O)c1cc(Cl)ccc1Cl)B(O)O,9.55
19,O=C(O[C@@H]1Cc2c(O)cc(O)cc2O[C@@H]1c1cc(O)c(O)c(O)c1)c1cc(O)c(O)c(O)c1 [Epigallocatechin gallate],103 ± 10
20,OC1CCC(Nc2nc(-c3ccccc3)nc3[nH]ccc23)CC1 (configuration not stated),92.3
21,CC(=O)NNC(=O)N1Cc2ccccc2Oc2ccc(Cl)cc21,94.3
22,N[C@@H]1CN(c2c(F)cc3c(=O)c(C(=O)O)cn([C@@H]4C[C@@H]4F)c3c2Cl)CC12CC2 [Sitafloxacin hydrate],107
23,CNC[C@H](O)c1cccc(O)c1 [Phenylephrine HCl],96.1
24,CCn1cc(-c2ccnc3[nH]c(-c4cccc(CN(C)C)c4)cc23)c(-c2ccc(NC(=O)N(C)C)cc2)n1,30
25,CCOc1ccn(-c2ccc(F)cc2)c(=O)c1C(=O)Nc1ccc(Oc2ccnc(N)c2Cl)c(F)c1,67.3
26,Cc1nc(Nc2n[nH]c3c2CN(C(=O)N[C@H](CN(C)C)c2ccccc2)C3(C)C)c2sccc2n1,38

row,Structure (SMILES),nuclei count
1,[Cl-].[Li+] [Lithium Chloride],102
2,CCCCCCN(CCCCCC)C(=O)Cc1c(-c2ccc(F)cc2)[nH]c2ccccc12,101
3,CCCCCCCCCCCCCCSCC(=O)O [Tetradecylthioacetic acid],98.5
4,CCc1cc2c(c(CC)n1)CCC(=O)N2Cc1ccc(-c2ccccc2-c2nn[nH]n2)cc1 [ZD 7155 hydrochloride],102
5,C#CCN(C)CCCOc1ccc(Cl)cc1Cl [Clorgyline hydrochloride],92.7
6,CC(C)(CO)Cc1cc(C(C)(C)C)c(O)c(C(C)(C)C)c1,103
7,O=C(O)CN(CCN(CC(=O)O)CC(=O)O)CCN(CC(=O)O)CC(=O)O [Pentetic acid],105
8,CC(C(=O)Nc1cccc(/N=C/c2c(O)ccc3ccccc23)c1)c1ccccc1 (configuration not stated) [Salermide],101
9,"CC(C)NCC(O)c1cc(O)cc(O)c1 (configuration not stated) [Metaproterenol sulfate, orciprenaline sulfate]",108
10,O=[N+]([O-])c1cc2nc(O)c(O)nc2cc1[N+](=O)[O-],106
11,C[C@@]1(c2cc(-c3cncnc3)c(F)cc2F)CCSC(N)=N1,108
12,CCc1cnn2c(NCc3ccc[n+]([O-])c3)cc(N3CCCC[C@H]3CCO)nc12,35.11 ± 0.057
13,Cn1c(=O)c2c(ncn2CCO)n(C)c1=O [Etofylline],108
14,COC(C)(C)CCCC(C)C/C=C/C(C)=C/C(=O)O (configuration not stated) [Methoprene acid],105
15,COc1nc(N)nc2c1ncn2[C@@H]1O[C@H](CO)[C@@H](O)[C@@H]1O [Nelarabine (Arranon)],110
16,CN(C)CCCn1cc(C2=C(c3c[nH]c4ccccc34)C(=O)NC2=O)c2ccccc21,55.6 and 47.3
17,OC[C@H]1O[C@H](O[C@H]2O[C@H](CO)[C@@H](O)[C@H](O)[C@H]2O)[C@H](O)[C@@H](O)[C@@H]1O [Trehalose],107
18,CN/C(=N\c1ccc(C2=NNC(=O)CC2C)cc1)NC#N (configuration not stated) [Siguazodan],99
19,O=C(Nc1cccc(Nc2ncc(Br)c(NCCc3cnc[nH]3)n2)c1)N1CCCC1,41.4 ± 1.2
20,COc1ccccc1N1CCN(CCCNc2cc(=O)n(C)c(=O)n2C)CC1 [Urapidil hydrochloride],108 ± 5.5
21,Oc1cc2c(c(Cl)c1O)CCNCC2c1ccccc1 (configuration not stated),91.2
22,CC(C)=CCC/C(C)=C/CC/C(C)=C/CC/C(C)=C/CO [Geranylgeraniol],94.4
23,CCN(CC)Cc1cc(Nc2ccnc3cc(Cl)ccc23)ccc1O [Amodiaquin dihydrochloride dihydrate],90.5
24,COCC(=O)O[C@]1(CCN(C)CCCc2nc3ccccc3[nH]2)CCc2cc(F)ccc2[C@@H]1C(C)C [Mibefradil dihydrochloride],81.7
25,CCC(=O)OCC(=O)[C@@]1(OC(=O)CC)[C@@H](C)C[C@H]2[C@@H]3CCC4=CC(=O)C=C[C@]4(C)[C@@]3(Cl)[C@@H](O)C[C@@]21C [Beclomethasone dipropionate (Beclometasone dipropionate)],112
26,CCC(=O)OCC(=O)[C@@]1(OC(=O)CC)[C@@H](C)C[C@H]2[C@@H]3CCC4=CC(=O)C=C[C@]4(C)[C@@]3(Cl)[C@@H](O)C[C@@]21C [Beclomethasone dipropionate],107

row,Structure (SMILES),nuclei count
1,OC[C@H]1O[C@@H](n2cnc3c2N=CNC[C@H]3O)C[C@@H]1O [Pentostatin],106
2,CN(C)c1ccccc1CN1CCCN(Cc2ccccc2N(C)C)C1c1ccncc1,101
3,O=c1c2ccccc2nc2n1CCc1c-2[nH]c2ccccc12 [Rutaecarpine (Rutecarpine)],91.4
4,COc1ccc2[nH]c(C(=O)c3ccccc3)cc2c1,20.8
5,O=C(/C=C/C=C/c1ccc2c(c1)OCO2)N1CCCCC1 [Piperine (1-Piperoylpiperidine)],104
6,O=C(Nc1cccc2cccnc12)c1ccc(N2C(=O)[C@@H]3[C@H](C2=O)[C@@H]2C=C[C@H]3C2)cc1 [endo-IWR 1],102
7,CCCCc1nc(Cl)c(CO)n1Cc1ccc(-c2ccccc2-c2nnn[nH]2)cc1 [Losartan],96.2
8,CC1(C)S[C@@H]2[C@H](NC(=O)Cc3ccccc3)C(=O)N2[C@H]1C(=O)O [Benzathine benzylpenicillin],81.7
9,CC1(C)S[C@@H]2[C@H](NC(=O)Cc3ccccc3)C(=O)N2[C@H]1C(=O)O [Benzylpenicillin sodium],98.6
10,Cc1nc2n(c(=O)c1CCN1CCC(c3noc4cc(F)ccc34)CC1)CCCC2O (configuration not stated) [Paliperidone (Invega)],102
11,CCN(CC)CCNC(=O)COc1ccc(OC)cc1 [Mefexamide hydrochloride],114
12,Clc1ccc(C(Cn2ccnc2)OCc2csc3c(Cl)cccc23)c(Cl)c1 (configuration not stated) [Sertaconazole nitrate],93.7
13,C=CCn1c(=O)c2cnc(Nc3ccc(N4CCN(C)CC4)cc3)nc2n1-c1cccc(C(C)(C)O)n1,25.1
14,CC(=O)OCC1=C(C(=O)O)N2C(=O)[C@@H](NC(=O)Cc3cccs3)[C@H]2SC1 [Cephalothin sodium salt],100
15,O=C1CCC(N2C(=O)c3ccccc3C2=O)C(=O)N1 (configuration not stated) [Thalidomide],103 ± 10
16,O=C1NCCN1CCN1CCC(c2cn(-c3ccc(F)cc3)c3ccc(Cl)cc23)CC1 [Sertindole],75.3
17,CNCCCN1c2ccccc2CCc2ccccc21 [Desipramine hydrochloride],105
18,O=C1OC(CN2CCOCC2)CN1/N=C/c1ccc([N+](=O)[O-])o1 (configuration not stated) [Furaltadone hydrochloride],98.5
19,Cc1ccc(-c2c(-c3nn(C)c4ncnc(N5CC[C@H](N6CCCCC6)C5)c34)cnn2C)cc1,102
20,O=C1c2c(O)cc(O)cc2O[C@H](c2cc(O)c(O)c(O)c2)[C@H]1O [Dihydromyricetin (Ampeloptin)],99.5
21,C[C@H]1[C@H](OC(=O)CCC(=O)O)O[C@@H]2O[C@@]3(C)CC[C@H]4[C@H](C)CC[C@@H]1[C@@]24OO3 [Artesunate],78.9
22,CN(CCOc1ccc(C[C@H](Nc2ccccc2C(=O)c2ccccc2)C(=O)O)cc1)c1ccccn1,104
23,O=C(O)CCNC(=O)c1ccc(/N=N/c2ccc(O)c(C(=O)O)c2)cc1 [Balsalazide Sodium],105
24,CCC(C)n1ncn(-c2ccc(N3CCN(c4ccc(OCC5COC(Cn6cncn6)(c6ccc(Cl)cc6Cl)O5)cc4)CC3)cc2)c1=O (configuration not stated) [Itraconazole],105
25,CCC(C)n1ncn(-c2ccc(N3CCN(c4ccc(OCC5COC(Cn6cncn6)(c6ccc(Cl)cc6Cl)O5)cc4)CC3)cc2)c1=O (configuration not stated) [Itraconazole (Sporanox)],95.6
